Biological target: antigen- and TRAIL receptor-expressing Colo205 cells
Test: flow cytometry, Colo205 cells

B1: scFvhu225-Fc-scTRAIL3-… (Fc fusion)
chain: DYKDDDDKGGGGSGTEVQLVESGGGLVQPGGSLRLSCAASGFSLTNYGVHWVRQAPGKGLEWLGVIWSGGNTDYNTPFTSRFTISRDNSKNTLYLQMNSLRAEDTAVYYCARALTYYDYEFAYWGQGTTVTVSSGGGGSGGGGSGGGGSDIQLTQSPSFLSASVGDRVTITCRASQSIGTNIHWYQQKPGKAPKLLIKYASESISGVPSRFSGSGSGTEFTLTISSLQPEDFATYYCQQNNNWPTTFGAGTKLEIKRAAAGGSGG[sequence of human IgG1 Fc omitted]GGSGGGSSGGGPQRVAAHITGTRGRSNTLSSPNSKNEKALGRKINSWESSRSGHSFLSNLHLRNGELVIHEKGFYYIYSQTYFRFQEEIKENTKNDKQMVQYIYKYTSYPDPILLMKSARNSCWSKDAEYGLYSIYQGGIFELKENDRIFVSVTNEHLIDMDHEASFFGAFLVGGGPQRVAAHITGTRGRSNTLSSPNSKNEKALGRKINSWESSRSGHSFLSNLHLRNGELVIHEKGFYYIYSQTYFRFQEEIKENTKNDKQMVQYIYKYTSYPDPILLMKSARNSCWSKDAEYGLYSIYQGGIFELKENDRIFVSVTNEHLIDMDHEASFFGAFLVGGGPQRVAAHITGTRGRSNTLSSPNSKNEKALGRKINSWESSRSGHSFLSNLHLRNGELVIHEKGFYYIYSQTYFRFQEEIKENTKNDKQMVQYIYKYTSYPDPILLMKSARNSCWSKDAEYGLYSIYQGGIFELKENDRIFVSVTNEHLIDMDHEASFFGAFLVG
B1 showed an EC50 of 1.33 nM.

— patent publication US20180094059A1
